The list shows a part of the results.

The assay has as its system PfHDP1 homeodomain (GST-tagged). Put plainly: gcPBM binding intensity (ln(normalized median fluorescence intensity)); higher = stronger DNA binding. A digest of the protocol:
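Each value is the highest Masliner-normalised natural-log median intensity across replicate spots of either orientation of a probe. The probes were primer-extended double-stranded 36-bp intergenic genomic sequences on an Agilent 4 × 180k array, alongside negative controls, exposed for 1 h to GST-tagged P. falciparum DNA-binding domains expressed in E. coli. Bound protein was picked up with Alexa488 anti-GST antibody and scanned at 488 nm.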
“GTATAATATTCATATTCACACATTAAAATATATTTA [CACACA_site4879]”: the “gcPBM binding intensity (ln)” value was 6.47.

For the sequence “TAAAAATATATTATATGTACGTATAACAATGTATGA [XGTACX_site8606]”, the “gcPBM binding intensity (ln)” value turned out to be 6.73.

Consider “ACCTAATATTATTAAACATGCACATTTGCATAAATA [TGCATGCA_site870]”, for which the “gcPBM binding intensity (ln)” value was found to be 10.1.

On to “CAAAATGAAAGGAAAAGTACATTTAAATGAATAAAT [XGTACX_site8241]”, for which the “gcPBM binding intensity (ln)” value is 6.57.

For the sequence “AAATAATTCAAAAAAACACACAAATTACAAAATAAA [CACACA_site269]”, the “gcPBM binding intensity (ln)” value was determined as 6.68.

As to “GCAAAATAAAGAAGCACACAAAAATGAAATATATAT [CACACA_site3651]”, the “gcPBM binding intensity (ln)” value turned out to be 6.77.

As to “CATATTTATAAATATAAACACACAACATTATATGCA [CACACA_site9065]”, the “gcPBM binding intensity (ln)” value worked out at 6.82.

As for “TTTAATTAATAATAATATAAATTGTTCTTTTTTTTT [GTGCAC_negctrl_site176]”, the “gcPBM binding intensity (ln)” value is 5.72.

Regarding “ACTAGTAAATTTATATGTACATATATATATATATAG [XGTACX_site2502]”, the “gcPBM binding intensity (ln)” value amounted to 6.86.

Turning to “TCTTGGTATATTCAATATATGATTTATATAATTCAA [CACACA_negctrl_site818]”, the “gcPBM binding intensity (ln)” value was determined as 6.36.

Consider “AAAAAAAATACATACATACACACATATATATATATA [CACACA_site912]”, for which the “gcPBM binding intensity (ln)” value was 9.29.

As to “ATTTATATATATCATACACACTAATATGTATATTAT [CACACA_site5816]”, the “gcPBM binding intensity (ln)” value was 6.72.

In the case of “TATACGTAATAATATGCACACAAATAAACTTTATAA [CACACA_site9166]”, the “gcPBM binding intensity (ln)” value is 9.59.

“TGATAACTAAATACATGTACAAATTAAAAAGAAAAA [XGTACX_site3080]”: the “gcPBM binding intensity (ln)” value worked out at 6.28.

Take “TAATGATTATATGACTGTACATTTGTAGGTATAATT [XGTACX_site3373]”: the “gcPBM binding intensity (ln)” value was 6.4.

In the case of “TTATTTTTTTCAACAAGTACTAATACAAAATAAAAC [XGTACX_site6460]”, the “gcPBM binding intensity (ln)” value stood at 6.66.

“GATTAAATCGATAATACACACTAAATGTAAAACATT [CACACA_site4248]”: the “gcPBM binding intensity (ln)” value amounted to 6.28.

For “TTGTATTATTAAATTATAAAACCTATAATTATGGAT [GTGCAC_negctrl_site340]”, the “gcPBM binding intensity (ln)” value was 6.2.

As for “ATCTTTCGAACATGTACACACAGAAAAAAAAAAAAA [CACACA_site5393]”, the “gcPBM binding intensity (ln)” value was 6.36.

With “TTATATGCATCCAAAAAGGAATGTTTTTAGAGAATC [CACACA_negctrl_site1062]”, the “gcPBM binding intensity (ln)” value came to 6.21.

For “TAAAAAGTATATGGTCGTACACTTTTGATTAATACA [XGTACX_site7804]”, the “gcPBM binding intensity (ln)” value worked out at 6.02.

In the case of “GTGTAGGCAAAAAGTTGTACGCCTAAAATCTATATA [XGTACX_site8912]”, the “gcPBM binding intensity (ln)” value was found to be 5.97.

For “GTACATATAAATATTACACACATTTTCATTTTTAAC [CACACA_site1986]”, the “gcPBM binding intensity (ln)” value was determined as 6.8.

Take “AAATCGAACAAATTATGTACTAAAAAAAAAATTTAT [XGTACX_site6399]”: the “gcPBM binding intensity (ln)” value is 6.1.

Regarding “AATAATTTGAAGGTGATAGTATTACATGGGAAATCA [CACACA_negctrl_site301]”, the “gcPBM binding intensity (ln)” value worked out at 6.36.

For “ACTCTCTTATATTAAACACACATATATATATGTATA [CACACA_site2703]”, the “gcPBM binding intensity (ln)” value was 7.05.

For the sequence “TCAAACAAAAAAGAAACACACACTAATTAAATTTTC [CACACA_site1101]”, the “gcPBM binding intensity (ln)” value worked out at 6.2.

Consider “TTTCCTTATAAAAATACACACAAACTTTCATTAAAA [CACACA_site5953]”, for which the “gcPBM binding intensity (ln)” value turned out to be 6.52.

In the case of “TCATATTATTATATATGTACATACCAATATATTATA [XGTACX_site2988]”, the “gcPBM binding intensity (ln)” value turned out to be 6.49.

On to “TAGATATGTCTAAAAAGTACTTTCTATAACAATTCT [XGTACX_site6678]”, for which the “gcPBM binding intensity (ln)” value stood at 6.28.

As to AGAGGGGAAAACATGATGCACTAGTATAACCAAGAA, the “gcPBM binding intensity (ln)” value was 8.51.

Consider “AACACCAAACAAAGGTGTACATATAGGAAAAAATCT [XGTACX_site1006]”, for which the “gcPBM binding intensity (ln)” value was 6.55.

As for “TATCACATATTATGATGTACAAAGATTCTGACTAAT [XGTACX_site2770]”, the “gcPBM binding intensity (ln)” value amounted to 6.14.

“TACACGCAGAAACACACACACACACCCATATATATA [CACACA_site637]”: the “gcPBM binding intensity (ln)” value turned out to be 7.14.

With “TAGATAAAATTAAAATGTACAAACCTTTTCCCTTAT [XGTACX_site1136]”, the “gcPBM binding intensity (ln)” value amounted to 5.97.

As for “ATATATATATATGATACATGCATATATTTTTTCTTC [TGCATGCA_site216]”, the “gcPBM binding intensity (ln)” value turned out to be 8.93.

In the case of “TATATATATATAAAGGTGCATATCTTTACGTATGTC [GTGCAC_site9665]”, the “gcPBM binding intensity (ln)” value came out at 9.23.

On to “ATTTTATTTTTTAATAGTACTCATTTTTTATGTGAA [XGTACX_site5494]”, for which the “gcPBM binding intensity (ln)” value turned out to be 6.48.

On to “TTTTTTTTATCAAATTGTACATATACAAAGGTGATC [XGTACX_site8054]”, for which the “gcPBM binding intensity (ln)” value was found to be 6.32.

For the sequence “ATATATATATATATATGTACTTATTTATTTTATATA [XGTACX_site8810]”, the “gcPBM binding intensity (ln)” value amounted to 9.21.

In the case of “AGAGAAGAAAACAAAACACACACATATATCTTAATA [CACACA_site8699]”, the “gcPBM binding intensity (ln)” value was 6.86.

Take “CCCAATAATTAAACAACACACATATATATCTGTAAT [CACACA_site5667]”: the “gcPBM binding intensity (ln)” value was 6.99.

Take AGGGGCGAAACAAAGGTGCTTTTATAAAATATGTAA: the “gcPBM binding intensity (ln)” value is 6.55.

For “ATAAAATGGGCAAACACACACAAAAAAAAGATATAT [CACACA_site1648]”, the “gcPBM binding intensity (ln)” value amounted to 7.41.
